We go through 35 molecules from the supplement of paper PMC6609913.

For the assay, the system named is V-C8 + BRCA2 (BRCA2-proficient hamster cells). As to the kind of experiment: normalised cell viability (fraction of plate median); higher = more viable cells (less toxic). The settings on record: 5 µM. In short, it runs like this: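 Cell viability was measured with a resazurin assay, normalised to the plate median (modified robust per cent of sample) and averaged over triplicate wells. Hamster V-C8 cells lacking BRCA2 and V-C8 cells with BRCA2 restored were seeded in 96-well plates. After 24 h, library drugs from 10 mM DMSO stocks were added at a final 5 μM in 100 μl medium and left for 3 days (screen 1) or 6 days (screen 2), with solvent-only wells alongside.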

Counter-ions that a name gives are not always drawn. ± gives the standard deviation of the averaged measurements. Over roughly 1,300 compounds, “normalised cell viability” has its median near 1; the lowest 2% begin near 0.15. The list shows a part of the results.

As for `CN(Cc1ccc(C(C)(C)C)cc1)Cc1cccc2ccccc12` [Butenafine Hydrochloride], the normalised cell viability stood at 1.06 ± 0.05 (treatment time: 3 days) and 0.982 ± 0.048 (treatment time: 6 days).
The like results for `CC(=O)CC(c1ccc([N+](=O)[O-])cc1)c1c(O)c2ccccc2oc1=O` (stereo not given) [Acenocoumarol] were, in that order, 0.92 ± 0.023 and 0.979 ± 0.053.
Consider `CCCCCCCCNC(C)C(O)c1ccc(SC(C)C)cc1` (stereo not given) [Suloctidil], for which the normalised cell viability (treatment time: 3 days) is 0.653 ± 0.045 and the normalised cell viability (treatment time: 6 days) is 0.743 ± 0.068.
The like results for `S=c1[nH]cnc2nc[nH]c12` [Mercaptopurine] were, in that order, 0.767 ± 0.066 and 0.799 ± 0.008.
Take `COc1ccc2c3c1O[C@H]1C[C@@H](O)C=C[C@@]31CCN(C)C2` [Galanthamine hydrobromide]: the normalised cell viability (treatment time: 3 days) came to 0.989 ± 0.035 and the normalised cell viability (treatment time: 6 days) worked out at 1.07 ± 0.11.
As for `Cc1nnc(SCC2=C(C(=O)O)N3C(=O)[C@@H](NC(=O)Cn4cnnn4)[C@H]3SC2)s1` [Cefazolin sodium salt], the normalised cell viability is 1.1 ± 0.034 (treatment time: 3 days) and 1.01 ± 0.12 (treatment time: 6 days).
The matching figures for `O=c1[nH]c(=O)n([C@H]2C[C@H](O)[C@@H](CO)O2)cc1C(F)(F)F` [Trifluridine]: 0.337 ± 0.056 and 0.332 ± 0.037.
The matching figures for `CC(C)NC(=N)NC(=N)Nc1ccc(Cl)cc1` [Proguanil hydrochloride]: 0.211 ± 0.013 and 0.203 ± 0.015.
In the case of `C[C@]12CCC(=O)C=C1C=C[C@@H]1[C@@H]2CC[C@@]2(C)[C@H]1CC[C@@]21CCC(=O)O1` [Canrenone], the normalised cell viability is, setting by setting: (treatment time: 3 days) 1.02 ± 0.014; (treatment time: 6 days) 1.078 ± 0.0054.
For `CC1(C)S[C@@H]2[C@H](NC(=O)[C@H](N)c3ccccc3)C(=O)N2[C@H]1C(=O)OC1OC(=O)c2ccccc21` (stereo not given in full) [Talampicillin hydrochloride], the normalised cell viability is, setting by setting: (treatment time: 3 days) 1.01 ± 0.04; (treatment time: 6 days) 0.835 ± 0.22.
The like results for `NC(=O)OCC(O)COc1ccc(Cl)cc1` (stereo not given) [Chlorphensin carbamate] were, in that order, 0.929 ± 0.076 and 0.952 ± 0.08.
On to `COC(=O)CCc1ccc(OCC(O)CNC(C)C)cc1` (stereo not given) [Esmolol hydrochloride], for which the normalised cell viability came out at 0.932 ± 0.14 (treatment time: 3 days) and 0.875 ± 0.14 (treatment time: 6 days).
As to `COCCOC(=O)C1=C(C)NC(C)=C(C(=O)OC(C)C)C1c1cccc([N+](=O)[O-])c1` (stereo not given) [Nimodipine], the normalised cell viability by setting is: (treatment time: 3 days) 1.21 ± 0.36; (treatment time: 6 days) 1.01 ± 0.032.
The like results for `CN1C(C(=O)Nc2ccccn2)=C(O)c2ccccc2S1(=O)=O` [Piroxicam] were, in that order, 1.02 ± 0.032 and 1.05 ± 0.015.
The like results for `CNCCC=C1c2ccccc2C=Cc2ccccc21` [Norcyclobenzaprine] were, in that order, 0.931 ± 0.082 and 0.919 ± 0.017.
Regarding `NC(=O)c1ccc[n+]([C@@H]2O[C@H](COP(=O)([O-])OP(=O)(O)OC[C@H]3O[C@@H](n4cnc5c(N)ncnc54)[C@H](O)[C@@H]3O)[C@@H](O)[C@H]2O)c1` [Nadide], the normalised cell viability reads like this: (treatment time: 3 days) 0.984 ± 0.038; (treatment time: 6 days) 1.11 ± 0.077.
The matching figures for `O=C(CCCN1CCC(O)(c2ccc(Cl)cc2)CC1)c1ccc(F)cc1` [Haloperidol]: 0.926 ± 0.1 and 0.801 ± 0.076.
The like results for `COc1ccc2c(c1)C(=O)N(CCc1ccc(S(=O)(=O)NC(=O)NC3CCCCC3)cc1)C(=O)C2(C)C` [Gliquidone] were, in that order, 1.09 ± 0.017 and 1.02 ± 0.024.
The matching figures for `NS(=O)(=O)Cc1noc2ccccc12` [Zonisamide]: 0.995 ± 0.055 and 1.01 ± 0.11.
Regarding `CN(C)CCN(Cc1ccc(Cl)cc1)c1ccccn1` [Chloropyramine hydrochloride], the normalised cell viability reads like this: (treatment time: 3 days) 1.06 ± 0.086; (treatment time: 6 days) 0.9302 ± 0.004.
For `COc1ccc([C@@H]2Sc3ccccc3N(CCN(C)C)C(=O)[C@@H]2OC(C)=O)cc1` [Diltiazem hydrochloride], the normalised cell viability by setting is: (treatment time: 3 days) 1.16 ± 0.083; (treatment time: 6 days) 0.992 ± 0.092.
For `Cc1cn([C@H]2C[C@H](N=[N+]=[N-])[C@@H](CO)O2)c(=O)[nH]c1=O` [Zidovudine, AZT], the normalised cell viability by setting is: (treatment time: 3 days) 1.05 ± 0.091; (treatment time: 6 days) 0.96 ± 0.031.
The matching figures for `CC(C[N+](C)(C)C)OC(N)=O` (stereo not given) [Bethanechol chloride]: 0.975 ± 0.056 and 1.04 ± 0.041.
In the case of `CCCNC(C)C(=O)Nc1c(C)csc1C(=O)OC` (stereo not given) [Articaine hydrochloride], the normalised cell viability stood at 1.03 ± 0.015 (treatment time: 3 days) and 1.05 ± 0.035 (treatment time: 6 days).
Take `NCCc1cc[nH]n1` [Betazole hydrochloride]: the normalised cell viability was found to be 1.07 ± 0.052 (treatment time: 3 days) and 1.05 ± 0.033 (treatment time: 6 days).
As for `COc1cccc(N(C)C(=S)Oc2ccc3c(c2)CCCC3)n1` [Liranaftate], the normalised cell viability (treatment time: 3 days) worked out at 0.8 ± 0.029 and the normalised cell viability (treatment time: 6 days) is 0.796 ± 0.043.
Take `Cc1c(NC(C)C)c(=O)n(-c2ccccc2)n1C` [Isopyrin hydrochloride]: the normalised cell viability (treatment time: 3 days) came to 0.953 ± 0.029 and the normalised cell viability (treatment time: 6 days) is 0.976 ± 0.082.
The matching figures for `COC1=CC(=O)C[C@@H](C)[C@]12Oc1c(Cl)c(OC)cc(OC)c1C2=O` [Griseofulvin]: 0.853 ± 0.024 and 0.836 ± 0.038.
The like results for `COc1cc(N)c(Cl)cc1C(=O)NC1CCN(CCCOc2ccc(F)cc2)CC1OC` (stereo not given) [Cisapride] were, in that order, 1.04 ± 0.075 and 0.999 ± 0.03.
The like results for `CN(C)CCC(c1ccc(Cl)cc1)c1ccccn1` (stereo not given) [Chlorpheniramine maleate] were, in that order, 1.18 ± 0.034 and 1.07 ± 0.073.
On to `CCCC(CCC)C(=O)O` [Valproic acid], for which the normalised cell viability by setting is: (treatment time: 3 days) 0.998 ± 0.085; (treatment time: 6 days) 1.01 ± 0.034.
The matching figures for `CN(C)CCCC1(c2ccc(F)cc2)OCc2cc(C#N)ccc21` (stereo not given) [Citalopram Hydrobromide]: 1.04 ± 0.023 and 0.923 ± 0.01.
The matching figures for `Cc1onc(-c2ccccc2)c1C(=O)N[C@@H]1C(=O)N2[C@@H]1SC(C)(C)[C@@H]2C(=O)O` [Oxacillin sodium]: 1.04 ± 0.042 and 0.989 ± 0.025.
The like results for `O=C(O)CNC(=O)C(CS)Cc1ccccc1` (stereo not given) [Thiorphan] were, in that order, 1.01 ± 0.011 and 0.945 ± 0.073.
In the case of `Cc1c(OCC(F)(F)F)ccnc1C[S+]([O-])c1nc2ccccc2[nH]1` (stereo not given) [Lansoprazole], the normalised cell viability (treatment time: 3 days) amounted to 0.99 ± 0.086 and the normalised cell viability (treatment time: 6 days) is 1.06 ± 0.071.
